Test results: the supplement of paper PMC4967469
The IC50 comes from the fitted curve, where viability falls to half of the control; a limit (>, <) means that the fit lies beyond the doses tested. AUC, from the same fit, is the share of area under the viability curve across the 256-fold dose range; it is 1 without any effect and falls as sensitivity rises. For some assays here: The top dose, if marked as inferred, was derived from the fitted curves, not read from the paper. For some assays here: An entry number marks a drug with two screens in the source, which often give different values.

Key:
Assay in all cases: Viability of human cancer cell lines after 72 h of drug (GDSC screen)
Thapsigargin = compound: C/C=C(/C)C(=O)O[C@H]1C(C)=C2[C@H]([C@@H]1OC(=O)CCCCCCC)[C@@](C)(OC(C)=O)C[C@H](OC(=O)CCC)[C@@]1(O)[C@H]2OC(=O)[C@@]1(C)O [Thapsigargin]; details: top dose 0.512 µM; top dose inferred
Experimental: (§1)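 Human cancer cell lines in 384-well plates, medium with 10% serum, drug for 72 h over a 256-fold dose range (nine 2-fold or five 4-fold steps up to the top dose). Adherent lines were fixed and stained with the nucleic acid dye Syto60, suspension lines read with resazurin; signal relative to control wells, capped at 0 and 100%. One two-parameter sigmoid per drug and line, fitted in a mixed model over all curves with the slope shared within a line.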

QL-X-138 = compound: C=CC(=O)Nc1cc(-n2c(=O)ccc3cnc4ccc(-c5cn[nH]c5)cc4c32)ccc1C [QL-X-138]; details: top dose 10.24 µM; top dose inferred
Experimental: as §1

GSK269962A = compound: CCn1c(-c2nonc2N)nc2cnc(Oc3cccc(NC(=O)c4ccc(OCCN5CCOCC5)cc4)c3)cc21 [GSK269962A]; details: top dose inferred
Experimental: as §1

MPS-1-IN-1 = compound: COc1cc(N2CCC(O)CC2)ccc1Nc1cc(Nc2ccccc2S(=O)(=O)C(C)C)c2cc[nH]c2n1 [MPS-1-IN-1]; details: top dose 20 µM; top dose inferred
Experimental: as §1

(5Z)-7-Oxozeaenol = compound: COc1cc(O)c2c(c1)/C=C/C[C@H](O)[C@H](O)C(=O)/C=C\C[C@H](C)OC2=O [(5Z)-7-Oxozeaenol]; details: top dose 10 µM; top dose inferred
Experimental: as §1

CP466722 = compound: COc1cc2ncnc(-n3nc(-c4ccccn4)nc3N)c2cc1OC [CP466722]; details: top dose 16 µM; top dose inferred
Experimental: as §1

Zibotentan = compound: COc1nc(C)cnc1NS(=O)(=O)c1cccnc1-c1ccc(-c2nnco2)cc1 [Zibotentan]; details: top dose 20 µM; top dose inferred
Experimental: as §1

ABT-888 = compound: C[C@]1(c2nc3c(C(N)=O)cccc3[nH]2)CCCN1 [ABT-888]; details: top dose 5 µM; top dose inferred
Experimental: as §1

CMK = compound: Cc1ccc(-c2c(C(=O)CCl)n(CCCO)c3ncnc(N)c23)cc1 [CMK]; details: top dose 4 µM; top dose inferred
Experimental: as §1

ABT-869 = compound: Cc1ccc(F)c(NC(=O)Nc2ccc(-c3cccc4[nH]nc(N)c34)cc2)c1 [ABT-869]; details: top dose 1.024 µM; top dose inferred
Experimental: as §1

CHIR-99021 = compound: Cc1cnc(-c2cnc(NCCNc3ccc(C#N)cn3)nc2-c2ccc(Cl)cc2Cl)[nH]1 [CHIR-99021]
Experimental: as §1

KU-55933 = compound: O=c1cc(-c2cccc3c2Sc2ccccc2S3)oc(N2CCOCC2)c1 [KU-55933]; details: top dose 10 µM
Experimental: as §1

[1] = top dose 2.5 µM, screen: GDSC drug entry 127
[2] = top dose 5 µM, screen: GDSC drug entry 1192
[3] = top dose 2.56 µM, screen: GDSC drug entry 154
[4] = top dose 10 µM, screen: GDSC drug entry 1241, top dose inferred

Row | Cell Line | AUC (Thapsigargin) | IC50 (Thapsigargin) [nM] | AUC (QL-X-138) | IC50 (QL-X-138) [nM] | AUC (GSK269962A; [1]) | IC50 (GSK269962A; [1]) [nM] | AUC (GSK269962A; [2]) | IC50 (GSK269962A; [2]) [nM] | AUC (MPS-1-IN-1) | IC50 (MPS-1-IN-1) [µM] | AUC ((5Z)-7-Oxozeaenol) | IC50 ((5Z)-7-Oxozeaenol) [nM] | AUC (CP466722) | IC50 (CP466722) [µM] | AUC (Zibotentan) | IC50 (Zibotentan) [µM] | AUC (ABT-888) | IC50 (ABT-888) [µM] | AUC (CMK) | IC50 (CMK) [µM] | AUC (ABT-869) | IC50 (ABT-869) [nM] | AUC (CHIR-99021; [3]) | IC50 (CHIR-99021; [3]) [µM] | AUC (CHIR-99021; [4]) | IC50 (CHIR-99021; [4]) [µM] | AUC (KU-55933) | IC50 (KU-55933) [µM]
1 | Calu-6 (lung adenocarcinoma, adherent) | 0.284 | 7.07 | 0.781 | 4890 | 0.97 | > 2500 | 0.904 | > 5000 | 0.915 | > 20 | 0.597 | 1200 | 0.788 | 8.13 | 0.984 | > 20 | 0.984 | > 5 | 0.981 | > 4 | 0.984 | > 1020 | 0.977 | > 2.56 | 0.958 | > 10 | 0.984 | > 10
2 | D-283MED (medulloblastoma, adherent) | 0.217 | 5.25 | 0.991 | > 10200 | 0.982 | > 2500 | 0.964 | > 5000 | 0.991 | > 20 | 0.902 | > 10000 | 0.982 | > 16 | 0.991 | > 20 | 0.975 | > 5 | 0.984 | > 4 | 0.991 | > 1020 | 0.991 | > 2.56 | 0.99 | > 10 | 0.901 | > 10
3 | EM-2 (chronic myeloid leukaemia, suspension) | 0.587 | 57.3 | 0.568 | 1000 | 0.718 | 711 | 0.412 | 174 | 0.902 | > 20 | 0.602 | 1240 | 0.672 | 3.22 | 0.968 | > 20 | 0.982 | > 5 | 0.901 | > 4 | 0.978 | > 1020 | 0.954 | > 2.56 | 0.878 | > 10 | 0.919 | > 10
4 | ES4 (Ewing sarcoma, adherent) | 0.11 | < 2 | 0.439 | 424 | 0.936 | > 2500 | 0.845 | 4460 | 0.794 | 10.7 | 0.799 | 5650 | 0.709 | 4.29 | 0.97 | > 20 | 0.978 | > 5 | 0.971 | > 4 | 0.982 | > 1020 | 0.978 | > 2.56 | 0.97 | > 10 | 0.954 | > 10
5 | ES8 (Ewing sarcoma, adherent) | 0.307 | 9.62 | 0.39 | 327 | 0.736 | 693 | 0.803 | 2260 | 0.686 | 3.97 | 0.561 | 905 | 0.725 | 4.11 | 0.985 | > 20 | 0.957 | > 5 | 0.897 | > 4 | 0.975 | > 1020 | 0.956 | > 2.56 | 0.986 | > 10 | 0.958 | > 10
6 | EW-1 (Ewing sarcoma, semi-adherent) | 0.173 | 3.68 | 0.371 | 291 | 0.975 | > 2500 | 0.988 | > 5000 | 0.667 | 3.49 | 0.829 | 5540 | 0.629 | 2.19 | 0.985 | > 20 | 0.984 | > 5 | 0.854 | 2.77 | 0.981 | > 1020 | 0.989 | > 2.56 | 0.903 | > 10 | 0.976 | > 10
7 | EW-11 (Ewing sarcoma, adherent) | 0.574 | 54 | 0.506 | 670 | 0.981 | > 2500 | 0.876 | > 5000 | 0.725 | 6.68 | 0.775 | 5180 | 0.622 | 2.39 | 0.97 | > 20 | 0.972 | > 5 | 0.975 | > 4 | 0.981 | > 1020 | 0.98 | > 2.56 | 0.978 | > 10 | 0.98 | > 10
8 | GI-1 (glioma, adherent) | 0.147 | 2.73 | 0.606 | 1230 | 0.183 | 18.4 |  |  | 0.912 | > 20 | 0.645 | 1540 | 0.832 | 9.64 | 0.984 | > 20 | 0.987 | > 5 | 0.741 | 1.18 | 0.978 | > 1020 | 0.931 | > 2.56 | 0.811 | 5.06 | 0.883 | 9.92
9 | GRANTA-519 (B-cell lymphoma, suspension) | 0.795 | 210 | 0.627 | 1380 | 0.986 | > 2500 | 0.977 | > 5000 | 0.941 | > 20 | 0.796 | 4150 | 0.768 | 5.43 | 0.991 | > 20 | 0.991 | > 5 | 0.978 | > 4 | 0.99 | > 1020 | 0.99 | > 2.56 | 0.99 | > 10 | 0.969 | > 10
10 | H9 (lymphoid neoplasm, suspension) | 0.161 | 3.89 | 0.904 | 9360 | 0.975 | > 2500 | 0.949 | > 5000 | 0.773 | 6.45 | 0.667 | 1660 | 0.951 | > 16 | 0.99 | > 20 | 0.992 | > 5 | 0.806 | 1.62 | 0.991 | > 1020 | 0.964 | > 2.56 | 0.957 | > 10 | 0.991 | > 10
11 | HL-60 (acute myeloid leukaemia, suspension) | 0.888 | 474 | 0.754 | 3120 | 0.953 | > 2500 | 0.95 | > 5000 | 0.835 | 11.3 | 0.797 | 4170 | 0.761 | 5.15 | 0.989 | > 20 | 0.982 | > 5 | 0.977 | > 4 | 0.988 | > 1020 | 0.99 | > 2.56 | 0.988 | > 10 | 0.971 | > 10
12 | IST-MEL1 (melanoma, adherent) | 0.145 | < 2 | 0.964 | > 10200 | 0.942 | > 2500 | 0.846 | 4750 | 0.829 | 15.8 | 0.552 | 889 | 0.785 | 8.31 | 0.978 | > 20 | 0.981 | > 5 | 0.914 | > 4 | 0.972 | > 1020 | 0.962 | > 2.56 | 0.877 | > 10 | 0.935 | > 10
13 | JVM-2 (lymphoid neoplasm, suspension) | 0.968 | > 512 | 0.806 | 6720 | 0.941 | > 2500 | 0.807 | 3310 | 0.908 | > 20 | 0.576 | 1060 | 0.906 | > 16 | 0.973 | > 20 | 0.9 | > 5 | 0.975 | > 4 | 0.935 | > 1020 | 0.974 | > 2.56 | 0.958 | > 10 | 0.93 | > 10
14 | KOPN-8 (B-cell leukaemia, suspension) | 0.182 | 4.31 | 0.359 | 278 |  |  | 0.863 | 3340 | 0.832 | 10.3 | 0.669 | 1710 | 0.622 | 2.05 | 0.982 | > 20 | 0.99 | > 5 | 0.752 | 1.16 | 0.98 | > 1020 | 0.976 | > 2.56 | 0.961 | > 10 | 0.953 | > 10
15 | KURAMOCHI (ovary, adherent) | 0.141 | < 2 | 0.862 | > 10200 | 0.952 | > 2500 | 0.98 | > 5000 | 0.939 | > 20 | 0.799 | 5680 | 0.872 | > 16 | 0.981 | > 20 | 0.984 | > 5 | 0.948 | > 4 | 0.941 | > 1020 | 0.945 | > 2.56 | 0.871 | > 10 | 0.955 | > 10
16 | L-363 (myeloma, suspension) | 0.188 | 4.48 | 0.554 | 878 | 0.967 | > 2500 | 0.719 | 1180 | 0.821 | 9.62 | 0.613 | 1220 | 0.75 | 4.63 | 0.99 | > 20 | 0.984 | > 5 | 0.868 | 2.85 | 0.99 | > 1020 | 0.991 | > 2.56 | 0.858 | 6.48 | 0.943 | > 10
17 | L-1236 (Hodgkin lymphoma, suspension) | 0.835 | 266 | 0.786 | 3700 | 0.992 | > 2500 | 0.958 | > 5000 | 0.987 | > 20 | 0.795 | 3850 | 0.819 | 7.31 | 0.992 | > 20 | 0.992 | > 5 | 0.983 | > 4 | 0.991 | > 1020 | 0.985 | > 2.56 | 0.851 | 5.88 | 0.945 | > 10
18 | LB831-BLC (bladder, adherent) | 0.226 | 5.01 | 0.786 | 4500 | 0.843 | 1820 | 0.896 | > 5000 | 0.958 | > 20 | 0.752 | 3350 | 0.92 | > 16 | 0.979 | > 20 | 0.976 | > 5 | 0.978 | > 4 | 0.987 | > 1020 | 0.92 | > 2.56 | 0.947 | > 10 | 0.969 | > 10
